In PubChem BioAssay AID624417 (National Center for Advancing Translational Sciences (NCATS), 2012):
The campaign covered roughly 410,000 compounds. About 6,400 (1.6%) were called active. This list was built around the results that the source calls inconclusive (neither active nor inactive); the mix of calls is not that of the screen. The call rests on the fitted dose curve; in most records, active means well fitted inhibition curve with a large enough effect; inconclusive means small, poorly fitted or top-dose-only effect; inactive means no such curve, though single readings can be large or run the other way. Potencies of inconclusive entries are doubtful fits and often do not repeat.

target: Glucagon-like peptide 1 receptor (Homo sapiens) (UniProt P43220); experiment: qHTS of GLP-1 Receptor Inverse Agonists (Inhibition Mode); settings: HEK293 GLP-1R CRE-luciferase, luminescence, 24 h, GLP-1R form is constitutively active; activity change, negative = inhibition: at 38.3 µM (top of the series) unless noted; further: nearly all actives have a fitted effect of over 55% in size
Summary of the method: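 Inverse agonism was detected as reduced cAMP-driven luciferase luminescence after 24 h compound treatment. The cells were HEK293 clones expressing constitutively active human GLP-1R with the reporter. Reporter-only and GPR119 cell lines served as counterscreen controls.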
On the % scale 0 is the no-effect control and ±100 the full control effect; potency means the concentration at half of the fitted maximal effect; tags describe the fitted curve by direction and shape.

UniProt P43220, sequence (P43220 whole entry, looked up): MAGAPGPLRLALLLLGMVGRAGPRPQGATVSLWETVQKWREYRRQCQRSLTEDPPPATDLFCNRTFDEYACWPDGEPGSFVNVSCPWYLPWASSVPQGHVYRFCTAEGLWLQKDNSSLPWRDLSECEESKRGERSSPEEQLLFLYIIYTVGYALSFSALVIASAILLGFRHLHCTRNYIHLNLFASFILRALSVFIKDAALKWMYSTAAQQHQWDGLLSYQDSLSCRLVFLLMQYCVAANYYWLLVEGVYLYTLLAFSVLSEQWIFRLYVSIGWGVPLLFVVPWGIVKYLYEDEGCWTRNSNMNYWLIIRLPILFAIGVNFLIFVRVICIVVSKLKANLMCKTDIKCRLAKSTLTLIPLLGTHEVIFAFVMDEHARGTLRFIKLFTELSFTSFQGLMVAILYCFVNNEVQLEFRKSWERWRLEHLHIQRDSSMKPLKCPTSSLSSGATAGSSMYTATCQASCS

Potency, inactive:
CC(=O)NCCNc1nc2cc(-c3ccccc3)sc2c(=O)n1C
CC(=O)Nc1cccc(NC(=O)CSc2ccc(C(F)(F)F)cc2[N+](=O)[O-])c1
O=c1cc(CSCc2ccc(Cl)cc2)[nH]c(=O)[nH]1
CCN(CCCNC(=O)c1cc2cc3ccc(C)cc3nc2s1)c1ccccc1
CC(C(=O)NCCN1CCOCC1)(c1ccccc1)c1ccccc1
O=C1NC[C@H](Cc2ccc(O)cc2)N(CCc2cccc(F)c2)C1=O
COc1ccc(-c2onc(C)c2C)cc1S(=O)(=O)N(C)Cc1ccco1
CCOC(=O)C1CCN(CC(=O)N2CCCc3c2c(=O)oc2ccc(OCc4ccccc4)cc32)CC1
CCOC(=O)C1CCC(CN(Cc2ccc(Cl)cc2)S(=O)(=O)c2ccc(Br)cc2)CC1 (stereo not drawn)
CCOC(=O)c1c(NC(=O)COC(=O)CCOc2ccc(OCC)cc2)sc(C(=O)N(C)C)c1C
CCCN1CCN(CCNC(=O)Nc2ccc(OC)c(OC)c2)CC1
NS(=O)(=O)c1ccc(NC(=O)C2COc3ccccc3O2)cc1 (stereo not drawn)

Potency, inconclusive:
COc1cccc(-c2nc(CSCC(=O)NCCc3ccc(Cl)cc3)c(C)o2)c1 0.891 µM [inhibitor, full curve, poor fit]
CC(C)(O)C#Cc1ccc([C@@H]2C[C@H]3CN(c4ccccc4)C(=O)[C@]34CCCN24)s1 5.62 µM [inhibitor, partial curve, poor fit]
O=C(CCSc1nc(-c2ccco2)cc(C(F)(F)F)n1)N1CCN(c2ccccc2)CC1 28.2 µM [inhibitor, single point]
COC(=O)C1CCN(C(=O)c2cc(-c3ccc(Cl)s3)nc3ccccc23)CC1 14.1 µM [inhibitor, single point]
CSc1nc(Oc2ccc3ccccc3c2)c2ccccc2n1 20 µM [inhibitor, single point]
CC(=O)Oc1ccc(/C=N/NC(=O)c2ccc(N(C)S(=O)(=O)c3ccccc3)cc2)cc1 3.16 µM [inhibitor, partial curve, poor fit]
COc1cccc(NC(=O)Nc2cc(C)ccc2F)c1 2.82 µM [inhibitor, full curve, poor fit]
CCOc1ccc(C2Sc3ccccc3NC3=C2C(=O)OC3)cc1 (stereo not drawn) 11.2 µM [inhibitor, partial curve, poor fit]
O=C1[C@H]2CCC=C[C@H]2[C@H](c2cccc(Br)c2)N1Cc1ccccc1 22.4 µM [inhibitor, single point]
CC(NC(=O)c1ccccc1Br)c1ccc2c(c1)CCCC2 (stereo not drawn) 28.2 µM [inhibitor, single point]
CC1CCC(NC(=O)c2nn(C)c3c2CSc2ccccc2-3)CC1 (stereo not drawn) 3.55 µM [inhibitor, full curve, poor fit]
O=C(COc1ccc(Cl)cc1Cl)NN1C(=O)C2C3C=CC([C@@H]2C1=O)C31CC1 (stereo partly drawn) 7.08 µM [inhibitor, partial curve]
Cc1cccc2c(C(=O)N3CCN(c4ccccc4)CC3)cc(-c3ccncc3)nc12 1.12 µM [inhibitor, full curve, poor fit]
Cc1occc1C(=O)NCCCCc1ccccc1 11.2 µM [inhibitor, single point]
O=C(COC(=O)c1ccccc1Br)NCCN1C(=O)CSC1=O 11.2 µM [inhibitor, single point]
COc1cc(/C=N/NC(=O)c2ccc3ccccc3c2)ccc1Oc1ccc([N+](=O)[O-])cn1 6.31 µM [inhibitor, partial curve, poor fit]
Cc1cccc(NC(=O)C2COc3ccccc3O2)c1 (stereo not drawn) 28.2 µM [inhibitor, single point]
O=C(NCc1ccccn1)c1ccc(OC2CCN(Cc3ccc(F)cc3F)CC2)cc1 12.6 µM [inhibitor, single point]
O=C1COc2ccccc2N1Cc1ccc(Cl)cc1 12.6 µM [inhibitor, partial curve, poor fit]
CCCN(c1ccccc1CC)S(=O)(=O)c1ccc2c(c1)CC(C)N2C(=O)C1CC1 (stereo not drawn) 28.2 µM [inhibitor, single point]
N#CC1=CN(Cc2ccccc2)C=C(/C=N/Nc2ccccc2)C1 4.47 µM [inhibitor, partial curve, poor fit]
CC(C)CSc1nnc2c3ccccc3n(C)c2n1 28.2 µM [inhibitor, single point]
Nc1cc(-c2ccccc2)nn1Cc1ccc(Cl)cc1 10 µM [inhibitor, partial curve, poor fit]
O=S(=O)(c1ccc(N=C2NN=C(c3cc(F)ccc3F)CS2)cc1)N1CCOCC1 7.94 µM [inhibitor, partial curve, poor fit]
O=C(c1cccc(F)c1)N(Cc1nc2ccccc2c(=O)[nH]1)C1CCCC1 7.94 µM [inhibitor, partial curve, poor fit]
Cc1noc(C)c1CSc1nnc(-c2ccncc2)n1-c1cccc(Cl)c1C 28.2 µM [inhibitor, single point]
COc1ccc(C2CC(c3cccs3)=Nc3ccccc3S2)cc1 (stereo not drawn) 10 µM [inhibitor, partial curve, poor fit]
CC(C)(C)c1cc(Br)ccc1OCC(=O)Nc1ncn[nH]1 28.2 µM [inhibitor, single point]
CCCn1nc(NC(=O)c2ccco2)c2cc3ccc(C)cc3nc21 28.2 µM [inhibitor, single point]
O=C(C1CCN(S(=O)(=O)c2ccc(Br)s2)CC1)N1CCc2ccccc21 10 µM [inhibitor, single point]
COc1ccc(Br)cc1/C=N/NC(=O)c1nc(-c2ccccc2)n2c1CCCCC2 1.58 µM [inhibitor, full curve, poor fit]
O=C1C(=O)N(CCS(=O)(=O)c2ccccc2)c2ccc(Cl)cc21 28.2 µM [inhibitor, single point]
COc1cc(/C=C/C(=O)Nc2cc(C(F)(F)F)ccc2Cl)cc(OC)c1OC 28.2 µM [inhibitor, single point]
Cc1ccc2ccccc2c1C(O)c1ncc(-c2cccc(F)c2)[nH]1 (stereo not drawn) 31.6 µM [inhibitor, single point]
Cc1ccc(Cn2ccnc2SCC(=O)NCc2ccc(F)cc2)cc1 22.4 µM [inhibitor, single point]
COc1ccc(C(=O)Nc2nc3ccccc3s2)cc1 7.94 µM [inhibitor, partial curve, poor fit]
COc1ccc(-c2cc(C(F)F)nc(-n3nc(C)cc3C)n2)cc1 11.2 µM [inhibitor, partial curve, poor fit]
OCCC1CN(Cc2ccc(-c3ccco3)cc2)CCN1Cc1ccsc1 (stereo not drawn) 10 µM [inhibitor, partial curve, poor fit]
O=C(COc1ccc(Cl)cc1)NC(=S)Nc1ccccc1N1CCOCC1 11.2 µM [inhibitor, partial curve, poor fit]
COc1ccc(-c2nc(-c3cccs3)c(-c3cccs3)[nH]2)cc1OC 3.55 µM [inhibitor, partial curve, poor fit]
CC(C)/C=C(/C(=O)c1ccc(Cl)cc1Cl)n1cncn1 10 µM [inhibitor, partial curve, poor fit]
CC(C)(C)c1ccc(S(=O)(=O)N2CCN(C(=O)C3=COCCO3)CC2)cc1 15.8 µM [inhibitor, single point]
CC1(C(=O)Nc2cccc3c2CCCC3)CCN1C(=O)CCc1ccc(Cl)cc1Cl (stereo not drawn) 22.4 µM [inhibitor, single point]
Oc1ccc(Br)cc1CNc1ccccn1 11.2 µM [inhibitor, partial curve, poor fit]
Cc1ccc2c(c1)[C@H]1[C@H](CO2)[C@H](c2ccccc2)[C@]2(C)C(=O)N(Cc3ccc(Cl)cc3)CC(=O)N12 12.6 µM [inhibitor, partial curve, poor fit]
COCCNC(=S)N/N=C(\C)c1ccc(C)c([N+](=O)[O-])c1 22.4 µM [inhibitor, single point]
Cc1ccc(Cl)cc1NC(=O)CSC1=Nc2ccccc2C2=NC(Cc3ccccc3)C(=O)N12 (stereo not drawn) 10 µM [inhibitor, partial curve, poor fit]
CCOc1ccc(N2C(=O)CSC2=S)cc1 28.2 µM [inhibitor, single point]
CC(=O)Nc1cc(-c2cccnc2)cn2c(-c3cccc(C(F)(F)F)c3)cnc12 28.2 µM [inhibitor, single point]
CCc1ccc(NC(=O)CN2C(=O)C3(SCC(=O)N3c3ccccc3)c3ccccc32)cc1 (stereo not drawn) 10 µM [inhibitor, single point]

Activity change, negative = inhibition, inactive:
CCOc1ccc(C(=O)NC(=S)Nc2cccnc2)cc1[N+](=O)[O-] 7.11% [at 7.66 µM]
